Screen size: about 340,000 compounds; about 6,900 (2%) were called active. Rule as the data show it: active = inhibition above about 30%; inactive = below that, where a call was filed. The list shows a part of the results, in another mix than the full data. Where no call is shown, the source filed none.

The assay has as its target D(2) dopamine receptor (Homo sapiens) (UniProt P14416). The experiment in a line: HTS Assay for Allosteric Antagonists of the Human D2 Dopamine Receptor: Primary Screen for Antagonists. Also: 0% is about no effect. To be noted: HEK293 TREx D2 cells, calcium flux, dopamine EC80; at 10 µM; stronger effect = higher value. The gist of the method: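 Dopamine at EC80 is the agonist stimulus; test compounds precede it by 180 s. Calcium flux read kinetically in a force-coupled, inducible HEK293 T-REx D2 cell line.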
UniProt P14416, sequence (P14416 whole entry, looked up): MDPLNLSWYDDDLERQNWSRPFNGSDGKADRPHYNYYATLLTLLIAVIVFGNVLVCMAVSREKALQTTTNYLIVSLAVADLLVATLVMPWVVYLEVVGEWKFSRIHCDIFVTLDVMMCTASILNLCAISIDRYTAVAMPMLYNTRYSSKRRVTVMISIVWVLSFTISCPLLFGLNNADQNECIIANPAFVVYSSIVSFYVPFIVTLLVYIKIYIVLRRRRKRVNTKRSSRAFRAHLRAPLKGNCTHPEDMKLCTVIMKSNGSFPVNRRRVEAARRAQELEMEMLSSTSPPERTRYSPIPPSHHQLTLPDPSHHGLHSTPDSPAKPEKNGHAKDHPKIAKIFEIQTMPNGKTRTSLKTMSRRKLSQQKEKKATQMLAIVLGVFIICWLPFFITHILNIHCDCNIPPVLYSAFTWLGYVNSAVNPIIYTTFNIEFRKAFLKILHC
In general terms: Calcium assays in cells follow changes in intracellular calcium, usually with a dye or a luminescent sensor.
What is called inhibition is the relative decrease from the control value, in per cent. Take `CC(C)c1ccc(Nc2ncnc3c2c(-c2ccccc2)cn3-c2ccccc2)cc1`: the inhibition is -11.2%.

In the case of `COc1ccccc1CNC(=O)Cn1nc(C)c2nn(-c3ccc(Cl)cc3)c(C)c2c1=O`, the inhibition is 5.53%.

With `COc1ccc(Cl)cc1NC(=O)c1c(NCc2ccc(C)o2)sc2c1CCCC2`, the inhibition is -4.37%.

Regarding `COc1cccc(N(CC(=O)N2CCC(C)CC2)S(=O)(=O)c2ccc(C)cc2)c1`, the inhibition turned out to be 2.65%.

For `COCCNC(=O)c1cc2c(Cl)nc3ccc(C)cc3c2s1`, the inhibition was 17.6%.

For the compound `Cc1ccc(CN(Cc2ccco2)C(=O)c2oc3c(C)c(C)ccc3c2C)cc1`, the inhibition was 7.01%.

Regarding `CCC(C)NC(=O)CSc1nc2cc3c(cc2c(=O)n1CCCC(=O)NCc1ccc2c(c1)OCO2)OCO3` (centres undefined), the inhibition is 4.65%.

Take `CCc1ccc(NC(=O)C/C(C)=N/NC(=O)COc2ccccc2C)cc1`: the inhibition is active: 39.6%.

As for `COc1cc(OC)c(Nc2ncnc3onc(-c4cccc(Cl)c4)c23)cc1Cl`, the inhibition is -17.4%.

Regarding `CCN(c1ccccc1)S(=O)(=O)c1ccc2[nH]c(=O)c(=O)[nH]c2c1`, the inhibition was active: 32.9%.

Turning to `COc1ccc(C(CCN2CCN(c3ccccc3)CC2)c2c(OC)cc(OC)c3c(-c4ccccc4)cc(=O)oc23)cc1` (centres undefined), the inhibition is active: 79.4%.

Take `Cc1cc(C)cc(OCC(=O)N(Cc2ccc(C)o2)C2CCS(=O)(=O)C2)c1` (centres undefined): the inhibition was -6.34%.

For the compound `Cc1ccc(-c2nn3c(=O)cc(CN4CCN(C(=O)Nc5cc(Cl)ccc5C)CC4)nc3s2)cc1`, the inhibition turned out to be 11.7%.

On to `CCC(CC)C(=O)Nc1ccc2nc(SCC(=O)N3c4ccccc4CC3C)sc2c1` (centres undefined), for which the inhibition was 4.83%.

As for `CCOC(=O)c1c(C)sc(-c2c(-c3ccc(OC)c(F)c3)[nH]c3c2c(=O)[nH]c(=O)n3C)c1O`, the inhibition was determined as 7.56%.

Take `COc1ccc(-c2noc(CCC(=O)NCc3ccc(OC)cc3OC)n2)cc1`: the inhibition came to 9.69%.

On to `O=C(/C=C/c1ccccc1)NC1CC2CCCC(C1)N2Cc1ccccc1` (centres undefined), for which the inhibition is active: 87.5%.

Turning to `CCCN(CCC)CC(O)Cn1cc(/C=C/C(=O)c2ccc(OCC)cc2)c2ccccc21` (centres undefined), the inhibition was found to be 6.72%.

Consider `CCn1cc(C(=O)N(C)Cc2ccccc2)c(=O)c2cc(S(=O)(=O)N3CCCCCC3)ccc21`, for which the inhibition came out at 9.43%.

For the compound `COc1ccc(OCC(=O)NCCS(=O)(=O)N2CCN(c3cccc(Cl)c3)CC2)cc1`, the inhibition was -20.4%.

For `CCc1ccc(NC(=O)C(=O)NCC(c2cccnc2)N2CCOCC2)cc1` (centres undefined), the inhibition is 16.3%.

As to `CCc1ccc(NC(=O)c2cc3c(=O)n(Cc4cccnc4)ccc3nc2C)cc1`, the inhibition turned out to be 24.9%.

Take `Cc1cccc(C(=O)Nc2cccc(OCc3cc(=O)n4c(C)csc4n3)c2)c1`: the inhibition was 7.79%.

Regarding `CC(C)c1nn2c(=O)cc(COC(=O)CNC(=O)c3ccccc3)nc2s1`, the inhibition was determined as 4.75%.

For the compound `COc1ccc(NC(=O)Cc2csc(COc3cccc(C)c3)n2)c(OC)c1`, the inhibition came out at 7.54%.

As for `Cc1cc(=O)[nH]c(SCC(=O)Nc2ccc3c(c2)CCC3)c1C#N`, the inhibition was active: 35.7%.

Consider `COc1ccc(Nc2nc(N)nc(CSc3nc4cc(OC)ccc4s3)n2)cc1`, for which the inhibition was 3.33%.

As for `Cc1ccc(CNC(=O)c2c(-c3cccc(Br)c3)noc2C)o1`, the inhibition is -8.3%.

`COC(=O)c1ccc(OCC2c3cc(OC)c(OC)cc3CCN2C(=O)c2ccccc2F)cc1` (centres undefined): the inhibition turned out to be 12.8%.

Turning to `Cc1ccc(C)c(Cn2nc(C)n3c(cc4cc(C)ccc43)c2=O)c1`, the inhibition came out at 0.437%.

Turning to `CC(Nc1ccc(-c2nc(-c3ccccn3)no2)cc1[N+](=O)[O-])c1ccccc1` (centres undefined), the inhibition was 21.8%.

Turning to `CCCCCn1c(=N)n(CC(O)COc2cccc(C)c2)c2ccccc21` (centres undefined), the inhibition stood at 5.44%.

For `CCOc1ccc(N(CC(=O)NC(C)CC)S(C)(=O)=O)cc1` (centres undefined), the inhibition was active: 37.6%.

`O=C(CSCc1cnn(-c2ccccc2)c1-n1cccc1)Nc1ccc(F)cc1F`: the inhibition is -5.76%.

Consider `Cc1ccc2oc(=O)n(CCNC(=O)Nc3ccc(C)c(F)c3)c2c1`, for which the inhibition was -4.3%.

On to `CC1CCCN(CC(O)COC(c2ccccc2)c2ccccc2)C1` (centres undefined), for which the inhibition is active: 50.2%.

In the case of `Cc1ccccc1CSc1nc2cccnc2n1Cc1ccc(C(=O)NCCc2cccs2)cc1`, the inhibition was 20.9%.

For the compound `COc1ccc(Cl)cc1N(C)C(=O)C(=O)Nc1ccc2nc3n(c(=O)c2c1)CCCCC3`, the inhibition was -3.02%.

Take `COc1ccc(NC(=O)CSc2nc(-c3ccccc3)nc3c2Cc2c(CO)cnc(C)c2O3)cc1Cl`: the inhibition was -1.4%.

In the case of `Cc1ccc(CN(C(=O)COc2ccc(Br)cc2)c2ccccn2)o1`, the inhibition was 6.54%.

Turning to `Cc1ccc(N2CCN(C(=O)c3noc4c3COc3ccc(C)cc3-4)CC2)c(C)c1`, the inhibition stood at 10.5%.

As for `CCOc1cccc2sc(N(CCN(C)C)C(=O)c3ccc(Br)s3)nc12`, the inhibition is active: 32.8%.

With `Cc1ccc(C)c(N2CCN(C(=O)C(C)n3c(C)c4cnn(-c5ccccc5)c(=O)c4c3C)CC2)c1` (centres undefined), the inhibition came out at 16.5%.

As to `Cc1ccccc1-c1noc(-c2ccccc2OCC(=O)Nc2ccccc2[N+](=O)[O-])n1`, the inhibition was -5.83%.

For `CCc1ccc(S(=O)(=O)c2nnn3c2nc(NCc2ccccc2OC)c2cc(Cl)ccc23)cc1`, the inhibition is -4.99%.

Consider `CCc1ccc(NC(=O)CN(Cc2ccccc2)S(=O)(=O)c2ccc3nc(C)sc3c2)cc1`, for which the inhibition is -3.59%.

`Cn1c(=O)oc2cc(S(=O)(=O)Nc3ccc(O)cc3)ccc21`: the inhibition was -10.6%.

As for `COC(=O)CN1C(=O)COc2ccc(S(=O)(=O)N3CCOCC3)cc21`, the inhibition is active: 46.3%.

In the case of `N#Cc1cccc(NC(=O)c2ccc3c(c2)N(Cc2cccc(Cl)c2)C(=O)c2ccccc2S3(=O)=O)c1`, the inhibition came to 8.92%.

With `O=C(Nc1nnc(S(=O)(=O)N2CCOCC2)s1)c1ccc(F)cc1`, the inhibition stood at 23.5%.

For the compound `O=C(c1ccc(F)cc1F)N1CCC(c2noc(-c3ccc(S(=O)(=O)N4CCCC4)cc3)n2)CC1`, the inhibition came out at 8.39%.

As to `CCOc1ccc(CNC(=O)C2Cc3cc(S(=O)(=O)N4CCCCCC4)ccc3N2C(C)=O)cc1` (centres undefined), the inhibition was found to be 8.91%.

For `CCC(C(=O)NCCCN(CC)CC)n1ncn2c(cc3occc32)c1=O` (centres undefined), the inhibition came to 19.7%.

`Clc1ccc(CN2CCC(c3nc4ccc(Cl)cc4[nH]3)CC2)cc1`: the inhibition was active: 82.2%.

With `O=C(Nc1ccccc1C(F)(F)F)N1CCN(c2ccc3nnc(-c4ccc(F)cc4)n3n2)CC1`, the inhibition is 2.3%.

`O=C(CCn1cnc2onc(-c3ccc(F)cc3)c2c1=O)N1CCN(c2cccc(Cl)c2)CC1`: the inhibition was 2.64%.

`O=C(NCCN1CCN(c2cccc(Cl)c2)CC1)C1CCCN(S(=O)(=O)c2cnc[nH]2)C1` (centres undefined): the inhibition was active: 81%.

For the compound `CC(=O)Nc1cccc(NC(=O)Nc2cccc3ccccc23)c1`, the inhibition is active: 46%.

On to `Cc1ccc(NC(=O)C2CCCN(c3ncnc4onc(C)c34)C2)cc1Cl` (centres undefined), for which the inhibition is -0.665%.

For the origin of these results see PubChem BioAssay AID485344 (National Center for Advancing Translational Sciences (NCATS), 2010).
